Source: ChEMBL document CHEMBL4888484, “Replenishing the malaria drug discovery pipeline: Screening and hit evaluation of the MMV Hit Generation Library 1 (HGL1) against asexual blood stage Plasmodium falciparum ,using a nano luciferase reporter read-out” (2022)
In all, about 150,000 compounds went through this assay and about 540 (0.36%) showed an effect of 50% or more. Some of the results follow.

System: Plasmodium falciparum
Assay: Primary screen in NF54 nanoGlo assay, in single point, at 2uM, 72h; a lower Z score goes with more inhibition
Type: functional, Erythrocyte
Conditions: timepoint 72 hour

Compound | % Inhibition | Z score
CCN(CC)[C@H](CNC(=O)C1CCC1)Cc1ccccc1 | 2% | -0.29
Cc1cc(C(=O)NC2(c3ncon3)CCOCC2)c(Cl)cc1F | -1% | 0.12
Cc1ccc(C)c(S(=O)(=O)NCCNC(=O)NCc2cnn(C)c2)c1 | -3% | 0.34
C[C@H](NC1CCN(C)CC1)c1cc2cc(Br)ccc2[nH]1 | 21% | -3.73
CCNC(=O)[C@@H]1CCN(c2ccccc2C)C1=O | -9% | 0.84
CN(C(=O)[C@@H]1Cc2ccccc2O1)c1ncccc1F | -8% | 1.19
CCc1cnc(C)nc1N[C@H]1C[C@@H](c2nnc(CO)n2C)C1 | 0% | 0.05
O=C1NC2(CCCC2)C(=O)N1CC(=O)N1c2ccccc2CCc2ccccc21 | 0% | -0.03
COCCC1(c2nc(-c3ccc(C(N)=O)cc3)no2)CCCC1 | -7% | 0.8
CC(C)(C)OC(=O)NC(C)(C)c1noc(-c2ccc3[nH]cnc3c2)n1 | -9% | 1.6
CCc1cc(N(CCC#N)CCC#N)n2ncnc2n1 | 4% | -0.7
Cc1nc(CC(=O)N(C)Cc2ccc(-n3cccn3)cc2)cs1 | -10% | 1.71
CC1CCN(S(=O)(=O)c2ccc(-c3noc(/C=C/c4ccco4)n3)cc2)CC1 | -5% | 0.87
CC(C)(C)CCC(=O)NCCCc1nnn[nH]1 | -9% | 1.19
Cc1cc(S(=O)(=O)NCc2nc(C(=O)N3CCC(C)CC3)c(C)o2)ccc1Cl | -7% | 0.94
CN(C)c1ccccc1C(=O)N1CCN(C)[C@H](c2ccccc2)C1 | -5% | 1.02
CN(CCS(=O)(=O)c1ccccc1)Cc1nncn1C | -2% | 0.44
COc1ccc(NC(=O)Nc2c(-c3cccc(OC)c3)n[nH]c2C)cc1 | 2% | -0.26
Cc1cccc(C(=O)NCCn2ccnc2)n1 | 14% | -1.21
O=C1NCCCCC1NC(=O)N1CCCC1c1ccc2c(c1)OCCO2 (stereo not given) | -7% | 1.17
O=C1CCC(NC(=O)NC2CCN(c3ccccc3Cl)C2=O)C(C2CC2)N1 (stereo not given) | -16% | 2.38
Cc1cccc(C)c1NC(=O)Cn1cnc2c(c(C)c(C)n2-c2ccccc2)c1=O | 8% | -0.81
Cc1cc(NC(=O)CN2CCN(c3nccc4sccc34)CC2)n(C)n1 | -14% | 1.79
Cc1c(O)cccc1C(=O)N1CCN(CC2CC2)[C@@H]2CS(=O)(=O)C[C@@H]21 | -8% | 1.35
CC(C)(C)[C@H]1OCC[C@@H]1c1noc(-c2cccnc2)n1 | -9% | 1.26
Cc1cc(Oc2ccc(-n3ncc4ccccc43)cc2)n2ncnc2n1 | -5% | 0.62
NS(=O)(=O)[C@H]1CCN(c2ncncc2Br)C1 | -8% | 0.98
Cc1ccncc1CN(C)C(=O)[C@]1(O)CCc2cc(Br)ccc2C1 | -5% | 1.08

Compound | % Inhibition | Z score
CC#CC(=O)N1C[C@H](NC(=O)OC(C)(C)C)[C@@H](c2cccc(F)c2)C1 | 2% | -0.26
CC[C@@H](C(=O)Nc1cc(F)ccc1F)n1cnc2nc(N3CCCCC3)ncc2c1=O | 29% | -3.24
CCOc1cccc(CNC(=O)c2ccc(-c3ccsc3)nc2)c1 | -1% | 0.13
COc1cccc2sc(N(C)CC(=O)Nc3ccc4c(c3)OCO4)nc12 | -12% | 2.34
COc1cccc(NC(=O)N2C[C@@H]3C[C@H](NS(C)(=O)=O)[C@H]2C3)c1 | 37% | -4.19
COCCn1cc(CC(=O)N2CCOCC2)c2cccnc21 | -9% | 1.07
COc1cc(NC(=O)c2sc(N(C)C)nc2C)cc(OC)c1 | -10% | 0.98
O=C(CN1CCCC1=O)N1CCC(Cc2ccccc2)CC1 | -9% | 1.1
CC1CCCC(C)N1S(=O)(=O)c1ccc(NS(=O)(=O)c2ccc3c(c2)CC(=O)N3C)cc1 (stereo not given) | -11% | 1.39
O=C(CCC1CCN(C(=O)C2=CCCCC2)CC1)Nc1ccc2c(c1)OCCO2 | 1% | -0.17
Cc1ccc(Cn2cnc3c2c(=O)n(CC2CC2)c(=O)n3-c2cccc(Cl)c2)cc1 | -16% | 1.49
O=C(CN(C1CCN(Cc2ccccc2)CC1)S(=O)(=O)c1ccccc1)N1CCNCC1 | 5% | -0.56
CS(=O)(=O)N1CCN(C(=O)c2ccc(Oc3nccs3)cc2)CC1 | -7% | 1.17
Cn1ccnc1CN(CCO)CC(=O)NC1CCCCCCC1 | -4% | 0.57
O=C(c1cc2c(s1)CCCC2)N1CCN(c2ncccn2)CC1 | -7% | 0.74
CCc1cc(-n2ccc(C)n2)ccc1NC(C)=O | -6% | 0.96
COc1cc([C@H]2CC(=O)Nc3c2c(C)nn3-c2ccc(Cl)cc2)ccc1O | -1% | 0.07
Cc1[nH]ncc1C(=O)N[C@H]1CCCC[C@@H]1F | -5% | 1.05
CCOC1CC(NCC(O)c2ccco2)C12CCCC2 (stereo not given) | -6% | 0.87
CC(C)(C)C1OCCCC1CN=C(N)N1CCOCC1 (stereo not given) | -20% | 1.79
COCCN1C(=O)C[C@H](C(=O)NCc2ccc(C)nc2)[C@H]1c1nccn1C | -5% | 0.72
COc1ccc(CCNc2nc3ccccn3n2)cc1 | -6% | 1.13
O=C(NCCc1n[nH]c(Cc2cccc(Cl)c2)n1)c1ccc(Cl)cc1 | 2% | -0.44
OC1(c2ccccc2)Cc2cccc[n+]2C1c1ccccc1 (stereo not given) | -2% | 0.14
COc1nc(NC(=O)[C@H](C)c2c(F)cccc2F)n[nH]1 | -9% | 1.26
CC(C)[C@H]1CCCN(c2nccnc2C#N)CC1 | 4% | -0.57
Cc1cc(N)n(S(=O)(=O)c2cn(C)nc2C)n1 | -37% | 4.33
